The campaign covered roughly 45,000 compounds. About 200 (0.44%) were called active. About 7% were inconclusive and are not listed. Calls come from the whole dose curve; as a rule, active = well fitted activation curve with a large enough effect; inconclusive = small, poorly fitted or top-dose-only effect; inactive = no such curve, though single readings can be large or run the other way. The list shows a part of the results.
assay: qHTS of TDP-43 Inhibitors: NCGC Sytravon Library Screen; settings: yeast TDP-43 toxicity rescue, BacTiter-Glo growth, 24 h; series mostly up to 46.1 µM; growth rescue (activation): at the top concentration; note: 0% is about no effect; nearly all actives have a fitted effect of over 55% in size
In short: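 TDP-43-expressing yeast, pregrown in raffinose, seeded at OD600 0.02 in galactose medium with compound for 24 hr at 30 deg C. Growth read by BacTiter-Glo luminescence, so rescue of toxicity appears as activation.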

SMILES | growth rescue (activation)
C=CC[N+](C)(C)CCN1C(=O)C2C(c3ccccc3)C=CC(c3ccccc3)C2C1=O (stereo not drawn) | inactive: -0.395%
Cc1ccccc1OCC(=O)NNC(=O)CCN1C(=O)c2ccccc2C1=O | inactive: 0.175%
Cc1cccn2cc(COc3cccc([N+](=O)[O-])c3)nc12 | inactive: 8.85%
Cc1cc(N2CCN(C)CC2)nc2ccc(NC(=S)N3CCN(c4ccc(Cl)cc4)CC3)cc12 | inactive: 16%
CCNC(=O)Nc1ccccc1C(=O)OC | inactive: 17.7%
CC(NC(=O)CCc1nnc(-c2ccc(-c3ccccc3)cc2)o1)c1nccs1 (stereo not drawn) | inactive: 14%
Cc1ccc2nc3c(cc(C(=O)NC4CCCCC4)c(=N)n3C3CCCCC3)c(=O)n2c1 | inactive: -1.02%
COc1ccc2c(c1)c(=O)oc1c(C)c(OCC(=O)N3CCc4ccccc4C3)ccc12 | inactive: 30.8%
Cc1ccc(OCC(=O)Nc2ccc3nn(-c4ccc(Cl)cc4)nc3c2)cc1 | inactive: -4.18%
Cc1ccc(-c2noc(-c3ccoc3C)n2)cc1 | inactive: -0.672%
Cc1cccc(N2CCN(Cc3nc(CC4CC4)no3)CC2)n1 | inactive: 20.5%
OC[C@@H]1CN(Cc2ccccc2)C[C@H](n2cnc3c(NC4CC4)ncnc32)O1 | inactive: -0.295%
Cn1cc(CN(Cc2ccccc2)C[C@@H]2CCC(=O)N2)c(-c2ccccc2F)n1 | inactive: -15.9%
COC(CNC(=O)CSCc1nc(-c2ccc(SC)cc2)oc1C)OC | inactive: 8.09%
COc1ccc(N/C(=N/c2nc(C)cc(C)n2)NC(=O)c2ccccc2)cc1 | inactive: 13.1%
O=C(OCC(=O)N1CCOCC1)c1ccccc1Br | inactive: 19.8%
CCN(CC)C(=O)Cn1cnc2sc(C(=O)NCCCN3CCOCC3)c(C)c2c1=O | inactive: 4.26%
Cc1ccc(/C(N)=N/OC(=O)Cc2ccccc2)cc1 | inactive: 46.3%
CC1(C)NC(=O)N(CC(O)CN(c2cccc([N+](=O)[O-])c2)S(=O)(=O)c2ccccc2)C1=O (stereo not drawn) | inactive: -6.16%
CCNC(=O)CN(c1ccc(F)cc1)S(=O)(=O)c1ccc2c(c1)OCCO2 | inactive: -17.1%
COc1ccc(NC(=O)[C@@H]2CCCN2S(=O)(=O)c2ccccc2F)cc1S(=O)(=O)N1CCCCC1 | inactive: -3.87%
CON1C(=O)C(=O)N(OC)C(C)(C)C1(C)C | inactive: -26.1%

SMILES | growth rescue (activation)
OC1CCCN(Cc2cn(Cc3ccccc3)nc2-c2cc3ccccc3o2)C1 (stereo not drawn) | inactive: 0.887%
O=C(Nc1ccc([N+](=O)[O-])cn1)c1cc(-c2cccc(Cl)c2)nc2ccccc12 | inactive: 8.89%
CS(=O)(=O)N1CCCC(C(=O)Nc2ccc3c(c2)OCCO3)C1 (stereo not drawn) | inactive: 2.11%
COc1cccc(OCCNC(=O)c2cccc(OC)c2)c1 | inactive: 15.5%
NC(=O)c1ccc(NCC2COc3ccccc3O2)c([N+](=O)[O-])c1 (stereo not drawn) | inactive: 1.46%
Cc1cccc(NC(=S)NC(=O)/C=C/c2ccco2)c1 | inactive: 14.4%
CCn1cc(C(=O)NCCCN2CCCCCC2)c(=O)c2cc(S(=O)(=O)N3CCc4ccccc4C3)ccc21 | inactive: 9.67%
COc1ccc(S(=O)(=O)NCC(=O)N(CC(=O)NCc2ccco2)Cc2ccccc2)cc1 | inactive: 13.2%
Cc1ccc(-n2sc3ccccc3c2=O)cc1 | inactive: -91.1%
COc1ccc(OC)c2c(C)cc(C)nc12 | inactive: 4.33%
O=C(CSc1nnc(COc2cccc3ccccc23)o1)N1c2ccccc2CCc2ccccc21 | inactive: 18.5%
O=C(CSc1ncnc2ccccc12)NCc1ccco1 | inactive: 8.17%
Cc1ccc(C)c2c1cc(C)c1nnc(SCC(=O)Nc3cccc(C(=O)O)c3)n12 | inactive: 13.3%
Cn1nc(C(=O)OCC(=O)c2ccc(Br)cc2)c2ccccc2c1=O | inactive: 24.3%
CCc1nc2ccc(C(=O)NCCN3CCNC3=O)cn2c1N(C)CCC(C)C | inactive: 3.55%
COP(=O)(OC)C(Nc1ccc(C)cc1)c1ccc(Br)cc1 (stereo not drawn) | inactive: 15.1%
O=C1c2cccc3c(N4CCCCC4)ccc(c23)C(=O)N1c1ccccn1 | inactive: 19.7%
CN(CC(=O)Nc1ccc(F)c(F)c1)S(=O)(=O)c1cccs1 | inactive: 26.5%
O=C(CSc1nnc2ccccn12)NNC(=O)c1ccc(Cl)cc1 | inactive: 6.19%
CC1OC(Nc2ccc(N=Nc3ccccc3)cc2)C(O)C(O)C1O (stereo not drawn) | inactive: 5.63%
COc1ccc(CCNC(=O)CSc2nc3scc(-c4ccccc4)c3c(=O)[nH]2)cc1 | inactive: 14.9%
CCOC(=O)C1CCN(C(=O)C(C)Sc2nnc3ccccn23)CC1 (stereo not drawn) | inactive: -11.4%

SMILES | growth rescue (activation)
CCSc1ncc(Cl)c(C(=O)Nc2nc3ccc(Cl)cc3s2)n1 | inactive: -5.59%
Cc1ccc(N(CC(=O)NCC2CCCO2)C(=O)CCC(=O)Nc2nccs2)cc1C (stereo not drawn) | inactive: 7.57%
Clc1ccc(SCCCCn2ccnc2)cc1 | inactive: -5.78%
CCNNC(=O)C(O)(Cc1ccccc1)Cc1ccccc1 | inactive: 5.02%
Cc1ccc(-n2c(=O)c3c(cnn3C)n(Cc3ccc(Cl)cc3)c2=O)cc1 | inactive: 17%
COC(=O)Cc1ccc2sc(-c3ccccc3)nc2c1 | inactive: 19.8%
Cc1cc(C(=O)NCC(=O)OCC(=O)N(C)C2CCCCC2)ccc1[N+](=O)[O-] | inactive: -1.76%
O=C(NCc1ccccc1)c1cc(C2CCCCN2S(=O)(=O)c2ccccc2)on1 (stereo not drawn) | inactive: 16.2%
O=C(CN1CCN(Cc2ccc(Cl)cc2)CC1)N/N=C/C=C/c1ccccc1[N+](=O)[O-] | inactive: 15.9%
CCc1ccc(/C=C2\SC(N3CCOCC3)=NC2=O)cc1 | inactive: 21.8%
O=C(NCc1ccccc1)C(c1ccc(F)cc1)N(Cc1cccs1)C(=O)c1cnccn1 (stereo not drawn) | inactive: 4.69%
Cc1cccn2c(=O)c(C=O)c(N3CC(C)OC(C)C3)nc12 (stereo not drawn) | inactive: -2.22%
CN(/N=C/c1cccnc1)C1=NS(=O)(=O)c2ccccc21 | inactive: 1.76%
O=C(CCCc1nc(-c2ccccc2)no1)NC1CCCC1 | inactive: 8.89%
O=C(O)Cc1sc(-c2ccc(C(=O)O)cc2)nc1-c1ccccc1 | inactive: -8.04%
CCOP(=O)(OCC)c1nc(-c2ccccc2)oc1NCc1ccccc1 | inactive: 2.79%
O=C(NC1CCCC1)C(c1cccnc1)N(Cc1ccccc1)C(=O)c1csnn1 (stereo not drawn) | inactive: 4.11%
CCOc1ccc(S(=O)(=O)/N=C(/Nc2ccc(C(C)=O)cc2)c2ccccc2)cc1 | inactive: -2.92%
COc1cccc(/C=N/Nc2nnc(C)n2N)c1O | inactive: 14.3%
N#Cc1ccccc1OCC(=O)NC1CCCCC1 | inactive: 2.54%
COc1ccc(N(CC(=O)NC2CCCC2)C(=O)CCC(=O)Nc2nc(C)cs2)cc1OC | inactive: 1.23%
CCCCc1c(C)nc2ccccc2c1SCCC#N | inactive: -6.66%

SMILES | growth rescue (activation)
Cc1cc(S(=O)(=O)Nc2nc(CN3CCOCC3)nc3sc4c(c23)CCC4)ccc1F | inactive: -4.51%
Cc1ccc(S(=O)(=O)N/N=C/c2cccc(OC3CSC3)c2)cc1 | inactive: 23.9%
COc1ccc(-c2[nH]ncc2C(=O)NCc2cccc(OC)c2)cc1 | inactive: 12.1%
Cc1ccsc1CN(C(=O)COc1ccc(Cl)cc1)C1CCS(=O)(=O)C1 (stereo not drawn) | inactive: 1.99%
CCC(c1nnnn1C1CCCC1)N1CCN(c2cccc(OC)c2)CC1 (stereo not drawn) | inactive: -21.2%
Cc1cccnc1C(NC(=O)C1CCN(CCCc2ccccc2)CC1)c1ccc(F)cc1 (stereo not drawn) | inactive: 1.04%
CC(=O)C1=C(C)NC2=C(C(=O)c3ccccc32)C1c1ccccc1 (stereo not drawn) | inactive: 9.36%
Cc1cccc(NC(=O)/C(=C/c2cccc([N+](=O)[O-])c2)NC(=O)c2cccs2)c1 | inactive: -11.1%
Oc1ccc(NC(=S)N=Nc2c(O)[nH]c3ccc(Br)cc23)cc1 | inactive: -5.91%
COC(=O)Cn1c(=O)c2c(n(Cc3ccccc3)c1=O)N/C(=C/c1ccc(OC)cc1)C2=O | inactive: 26.6%
Cc1ccc(/C=C(\C#N)C(=O)Nc2cccc(Cl)c2)o1 | inactive: 0.111%
O=C(/C=C/c1c(F)cccc1Cl)Nc1nc2ccccc2[nH]1 | inactive: 0.127%
NS(=O)(=O)c1ccc(NC(=O)COC(=O)C2CC(=O)N(Cc3ccccc3)C2)cc1 (stereo not drawn) | inactive: 14.6%
CCCC(C(=O)O)n1c(O)c(C=C2N=c3ccccc3=N2)sc1=S (stereo not drawn) | inactive: -4.39%
CC(=O)NC(c1ccc2ccccc2c1)c1ccc2cccnc2c1O (stereo not drawn) | inactive: 25.5%
CCOC(=O)c1c(CN(C)C)n(C)c2c(O)c(N=NC(N)=O)c3ccc(Br)cc3c12 | inactive: -4.77%
Cc1coc2c1c(C)cc1oc(=O)c(CC(=O)NCC(=O)O)c(C)c12 | inactive: -13.8%
O=C(c1ccc(C(F)(F)F)cc1)C1CCCN(C(=O)CCN2CCCO2)C1 (stereo not drawn) | inactive: -0.0735%
CCCn1c(C)cc(-c2csc(N)n2)c1C | inactive: 12.3%
O=S(=O)(c1cccc(C(F)(F)F)c1)N1CCN(c2cnccn2)CC1 | inactive: 11.2%
O=C(O)C1CCN(C(=O)c2ccco2)CC1 | inactive: 3.91%
CC(NC(=O)C1CCN(CCOc2ccc(Cl)cc2)CC1)c1cccc2ccccc12 (stereo not drawn) | inactive: -7.53%

SMILES | growth rescue (activation)
Oc1c(Br)cc(Br)cc1CNc1ccccn1 | inactive: -0.11%
O=[N+]([O-])c1cnc(N2CCCCC2)c([N+](=O)[O-])c1 | inactive: 10.1%
CCOC(=O)/C(=C\c1ccc(C)cc1)NC(=O)c1ccccc1 | inactive: 0.91%
Cc1ccc(C(=O)N/N=C\c2c(C)nn(-c3ccccc3)c2Cl)cn1 | inactive: 18.1%
O=C(Cn1cc(C(=O)COc2ccccc2)c2ccccc21)NCc1ccco1 | inactive: 8.44%
Cc1ccc(C)c(S(=O)(=O)Nc2ccc3[nH]c(=O)[nH]c3c2)c1 | inactive: 12.6%
Cc1ccccc1C(=O)NC(=S)NC1CCSC1=O (stereo not drawn) | inactive: 18.5%
COc1ccc(C2(C)NC(=O)N(CC(=O)NC3CC3)C2=O)cc1 (stereo not drawn) | inactive: 8.54%
OCC1(Cc2ccccc2C(F)(F)F)CCN(Cc2ccncc2)CC1 | inactive: 21.2%
OCCNc1ccc(Cl)cc1 | inactive: -5.21%
O=C(OCc1c(Cl)cccc1Cl)c1ccccn1 | inactive: 19.5%
O=C(Nc1ccc(NC(=O)c2ccc([N+](=O)[O-])cc2[N+](=O)[O-])cc1)c1ccco1 | inactive: -3.46%
CC(=O)Nc1cccc(-c2cc(C)c3cc4c(cc3n2)OCO4)c1 | inactive: 3.45%
OC(CNCc1cccc(Br)c1)c1ccccc1 (stereo not drawn) | inactive: -1.2%
O=C(COc1ccc(S(=O)(=O)N2CCCC2)cc1)N1CCCCC1 | inactive: 9.05%
O=C(NC1CC1)C1CCN(C(=O)c2ccccc2Cl)CC1 | inactive: 1.49%
CCC(C)(C)NC(=O)C(c1ccc(F)cc1)N(Cc1cccc(OC)c1)C(=O)c1cnccn1 (stereo not drawn) | inactive: -9.92%
CN(C)S(=O)(=O)c1cccc(NC(=O)CSc2nc3c(cc2C#N)C(=O)CC(C)(C)C3)c1 | inactive: 6.31%
O=C(O)C(NS(=O)(=O)c1ccccc1)C(O)c1ccccc1 (stereo not drawn) | inactive: 8.61%
O=C(Nc1ccccc1)C1CCN(C(=O)c2ccco2)CC1 | inactive: 10.6%

Reference: PubChem BioAssay AID1347073 (National Center for Advancing Translational Sciences (NCATS), 2019)
